{"source": "PubChem BioAssay AID894", "about": "(National Center for Advancing Translational Sciences (NCATS), 2007)", "note": "Several values for one entry are separate records, joined by “and”; a condition that tells them apart may be missing. Equal values may be shown once. Hit rate of the full screen: of about 150,000 compounds, about 6,500 (4.3%) were called active. Inconclusive results, whose numbers are uncertain, are shown with a selection of clear calls. Calls come from the whole dose curve; as a rule, active = well fitted inhibition curve with a large enough effect (not every such curve was filed as active); inconclusive = small, poorly fitted or top-dose-only effect, or another doubt; inactive = no such curve, though single readings can be large or run the other way. A potency beside an inconclusive call is a rough fit, not a confirmed value. A structure can be active in one record and inactive in another. % is set by controls: 0 for no effect and ±100 for the full control effect; potency is the fitted concentration of half-maximal effect; tags give direction and shape of the fitted curve.", "data": [{"molecular_target": "15-hydroxyprostaglandin dehydrogenase [NAD(+)] (Homo sapiens) (UniProt P15428)", "sequence (P15428 whole entry, looked up)": "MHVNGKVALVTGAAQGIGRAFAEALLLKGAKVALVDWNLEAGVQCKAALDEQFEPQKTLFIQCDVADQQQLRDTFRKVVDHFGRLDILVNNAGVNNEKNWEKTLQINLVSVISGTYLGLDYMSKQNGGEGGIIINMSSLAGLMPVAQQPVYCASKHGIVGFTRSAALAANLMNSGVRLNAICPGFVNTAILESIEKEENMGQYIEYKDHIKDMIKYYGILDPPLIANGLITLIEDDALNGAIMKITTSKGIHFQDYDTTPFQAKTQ", "assay": "qHTS Assay for Inhibitors of HPGD (15-Hydroxyprostaglandin Dehydrogenase)", "conditions": "purified HPGD, NADH fluorescence kinetic, PGE2 substrate; activity change, negative = inhibition: hits give low values", "outline": "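NADH formation kinetics: reaction with 30 uM PGE2 and 1 mM NAD+ (final), 20 nM enzyme, Tris-HCl pH 8 with Tween 20, after 15 min compound preincubation at room temperature. Fluorescence change, last versus first of five reads.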", "values": [{"smiles": "O=C(c1cc(C(=O)NCc2ccccc2)c(=O)n(Cc2ccccc2)c1)c1cc(Cl)ccc1O", "Potency": "active: 15.8 µM"}, {"smiles": "Nc1ccc2c(c1)oc1ccccc12", "Potency": "inconclusive: 10 µM [inhibitor, partial curve]"}, {"smiles": "COc1ccc(OP(=O)(Nc2ccccc2)Nc2ccccc2)cc1", "Potency": "active: 14.1 µM"}, {"smiles": "CCC(=O)c1cc(F)c(N2CCN(CC)CC2)cc1C", "activity change, negative = inhibition": "inactive: -8.45%"}, {"smiles": "CCOC(=O)N(c1ccccc1)P1(=S)OCCO1", "Potency": "inconclusive: 39.8 µM [inhibitor, single point]"}, {"smiles": "CC1CCCCN1CC(=O)c1ccc2cc[nH]c2c1", "note": "(stereo not drawn)", "Potency": "inconclusive: 22.4 µM [inhibitor, partial curve]"}, {"smiles": "CC(C)CCn1c(N)c(C(=O)OCC2CCCO2)c2nc3ccccc3nc21", "note": "(stereo not drawn)", "Potency": "inconclusive: 28.2 µM [inhibitor, partial curve]"}, {"smiles": "CC(C)[C@]1(NC(=O)[C@@H]2C=C3c4cccc5[nH]cc(c45)C[C@H]3N(C)C2)O[C@@]2(O)C3CCCN3C(=O)[C@H](Cc3ccccc3)N2C1=O", "note": "(stereo partly drawn)", "Potency": "inconclusive: 39.8 µM [inhibitor, partial curve, poor fit]"}, {"smiles": "C=C1CCC(O)C/C1=C\\C=C1/CCCC2(C)C1CCC2C(C)CCCC(C)C", "note": "(stereo not drawn)", "activity change, negative = inhibition": "inactive: -5.36%"}, {"smiles": "Cc1cc(/C=C2\\C(=O)NC(=O)N(c3ccc(Cl)cc3)C2=O)c(C)n1-c1sc2c(c1C#N)CCCC2", "Potency": "active: 10 µM"}, {"smiles": "CC1CC(=O)O1", "note": "(stereo not drawn)", "activity change, negative = inhibition": "inactive: -1.34%"}, {"smiles": "BrCCBr", "activity change, negative = inhibition": "inactive: -2.59%"}, {"smiles": "CCOP(=S)(OCC)Oc1ccc2c(C)c(Cl)c(=O)oc2c1", "Potency": "inconclusive: 31.6 µM [inhibitor, partial curve]"}, {"smiles": "O=C1C=CC(=O)C=C1", "activity change, negative = inhibition": "inactive: -1.76% and inactive: -23.2%"}, {"smiles": "O=C1NC(=S)N(c2ccccc2F)C(=O)/C1=C\\c1cccs1", "Potency": "active: 7.94 µM"}, {"smiles": "Oc1cc2c(cc1O)[C@H]1c3ccccc3CNC1CC2", "note": "(stereo partly drawn)", "Potency": "active: 6.31 µM"}, {"smiles": "CCC(C)OC(=O)c1c(N)n(Cc2cccs2)c2nc3ccccc3nc12", "note": "(stereo not drawn)", "Potency": "inconclusive: 20 µM [inhibitor, partial curve]"}, {"smiles": "CC(C)(c1ccc(O)cc1)c1ccc(O)cc1", "Potency": "inconclusive: 11.2 µM [inhibitor, partial curve]"}, {"smiles": "O=P(O)(O)C(Cl)(Cl)P(=O)(O)O", "activity change, negative = inhibition": "inactive: -7.07%"}, {"smiles": "O=C(O)c1cc[c]([Hg][Cl])cc1", "Potency": "active: 0.282 µM"}, {"smiles": "COc1ccc(N/N=C/c2c(O)n(-c3ccc(C)c(C)c3)c(=O)[nH]c2=O)cc1", "Potency": "inconclusive: 39.8 µM [inhibitor, single point]"}, {"smiles": "CC(C)N(CC[C@@](C(N)=O)(c1ccccc1)c1ccccn1)C(C)C", "activity change, negative = inhibition": "inactive: -3.53%"}, {"smiles": "CC1CC2OC2/C=C\\C=C/C(=O)Cc2c(Cl)c(O)cc(O)c2C(=O)O1", "note": "(stereo not drawn)", "Potency": "active: 17.8 µM"}, {"smiles": "CCOC(=O)c1c(N)n(CCN2CCCCC2)c2nc3ccccc3nc12", "Potency": "inconclusive: 31.6 µM [inhibitor, partial curve]"}, {"smiles": "O=C(Nc1ccc2ccccc2c1)c1nn(C23CC4CC(CC(C4)C2)C3)cc1Br", "Potency": "inconclusive: 22.4 µM [inhibitor, partial curve]"}, {"smiles": "CC(=NCC1CCCO1)c1c(O)n(Cc2ccccc2)c(=O)[nH]c1=O", "note": "(stereo not drawn)", "Potency": "inconclusive: 17.8 µM [inhibitor, partial curve]"}, {"smiles": "CC(C)=C[C@H]1[C@@H](C(=O)OCc2cc3c(cc2Cl)OCO3)C1(C)C", "activity change, negative = inhibition": "inactive: -7.09%"}, {"smiles": "O=C(Nc1cccc(OC(=O)N2CCOCC2)c1)N1CCOCC1", "activity change, negative = inhibition": "inactive: -4.58%"}, {"smiles": "CCOc1ccc(N=Cc2c(O)n(C(C)(C)C)c(=O)[nH]c2=O)cc1", "Potency": "inconclusive: 31.6 µM [inhibitor, partial curve]"}, {"smiles": "Oc1ccc(Cl)cc1Cc1cc(Cl)ccc1O", "Potency": "active: 28.2 µM and active: 14.1 µM"}, {"smiles": "CCCC[N+](=O)[O-]", "activity change, negative = inhibition": "inactive: -5.46%"}, {"smiles": "CCCCC/C=C\\C/C=C\\C/C=C\\C/C=C\\CCCC(=O)NCC(=O)O", "Potency": "active: 28.2 µM"}, {"smiles": "Cc1ccc(N=C=O)cc1N=C=O", "activity change, negative = inhibition": "inactive: -3.37%"}, {"smiles": "COc1cc(CN2C(=O)NC(=O)C3(Cc4cc(C)ccc4N(C)C3)C2=O)cc(OC)c1", "note": "(stereo not drawn)", "activity change, negative = inhibition": "inactive: -18.3%"}, {"smiles": "CC(C)Cn1cc(C(=O)N2CCC3(CC2)OCCO3)c2c3ccccc3n(C)c2c1=O", "Potency": "inconclusive: 17.8 µM [inhibitor, partial curve]"}, {"smiles": "CC(C)(O)c1[se]c2ccccc2c1I", "activity change, negative = inhibition": "inactive: -24.2%"}, {"smiles": "Cc1nc2ccc(Br)cc2c(=O)n1-c1ccc([N+](=O)[O-])c(C(F)(F)F)c1", "Potency": "inconclusive: 31.6 µM [inhibitor, partial curve]"}, {"smiles": "Cc1ccc2c(c1)=C/C(=C\\c1c(O)[nH]c(=O)[nH]c1=O)C(=O)N=2", "Potency": "inconclusive: 14.1 µM [inhibitor, partial curve]"}, {"smiles": "Cc1ccc(C(=O)NC(=S)NNS(=O)(=O)c2ccc(C)cc2)cc1", "Potency": "active: 15.8 µM"}, {"smiles": "O=c1[nH]c(=O)n(Cc2ccco2)c(O)c1C=NCc1ccco1", "Potency": "active: 28.2 µM"}, {"smiles": "CCCCC/C=C\\C/C=C\\C/C=C\\C/C=C\\CCCC(=O)NC1CC1", "Potency": "inconclusive: 35.5 µM [inhibitor, single point]"}, {"smiles": "Nc1cccc2ccccc12", "Potency": "inconclusive: 10 µM [inhibitor, partial curve]"}, {"smiles": "COc1ccc(-c2nc(CSCC(=O)N3CCC4(CC3)OCCO4)c(C)o2)cc1OC", "Potency": "inconclusive: 35.5 µM [inhibitor, partial curve]"}, {"smiles": "Cc1nc2cc(C(F)(F)F)ccc2n1C1CCN(Cc2nnnn2Cc2cccs2)CC1", "activity change, negative = inhibition": "inactive: -3.5%"}, {"smiles": "COc1ccc(CCNC(=O)c2c(N)n(CCN3CCOCC3)c3nc4ccccc4nc23)cc1", "Potency": "inconclusive: 28.2 µM [inhibitor, partial curve]"}, {"smiles": "O=S(=O)(O)F", "activity change, negative = inhibition": "inactive: -23.1%"}, {"smiles": "COC(=O)C(C)Oc1cc(C)cc2oc(=O)c3c(c12)CCCC3", "note": "(stereo not drawn)", "Potency": "inconclusive: 3.55 µM [inhibitor, partial curve]"}, {"smiles": "CCC1CN2CCC1CC2C(O)c1ccnc2ccc(OC)cc12", "note": "(stereo not drawn)", "Potency": "inconclusive: 31.6 µM [inhibitor, partial curve]"}, {"smiles": "C=C(C)CSc1nc2ncc(Cl)cc2[nH]1", "Potency": "active: 12.6 µM"}, {"smiles": "COC[C@]12CN(C=O)C3C4C(OC)C1[C@@]3(C1CC3(O)C(OC)C(O)C4(OC(C)=O)C1C3OC(=O)c1ccccc1)[C@@H](OC)CC2O", "note": "(stereo partly drawn)", "activity change, negative = inhibition": "inactive: -12.8%"}, {"smiles": "CCCC[N+]12CCC(CC1)C(=C(c1ccccc1)c1ccccc1)C2", "activity change, negative = inhibition": "inactive: 1.95%"}, {"smiles": "CC1(C)N=C(c2ccccc2)[C@@H]2C(c3ccc([N+](=O)[O-])cc3)N21", "note": "(stereo partly drawn)", "activity change, negative = inhibition": "inactive: -4.31%"}, {"smiles": "Cc1ccc(-n2c(-c3nn(C)c(C)c3Cl)n[nH]c2=S)cc1", "Potency": "active: 28.2 µM"}, {"smiles": "N#CC1=C(N)Oc2n[nH]c(-c3cccs3)c2C1c1ccco1", "note": "(stereo not drawn)", "Potency": "inconclusive: 39.8 µM [inhibitor, partial curve, poor fit]"}, {"smiles": "CCc1ccc(-n2c(O)c(/C=N/NC(=O)c3ccncc3)c(=O)[nH]c2=O)cc1", "activity change, negative = inhibition": "inactive: -14.6%"}, {"smiles": "c1ccc(C(c2ccccc2)N2CCN(c3ccc4ccccc4n3)CC2)cc1", "Potency": "inconclusive: 39.8 µM [inhibitor, single point]"}, {"smiles": "CCC(C)NC(=O)c1c(N)n(CC2CCCO2)c2nc3ccccc3nc12", "note": "(stereo not drawn)", "Potency": "inconclusive: 28.2 µM [inhibitor, partial curve]"}, {"smiles": "COc1cc2c(cc1O)CC1c3c(cc(O)c(OC)c3-2)CCN1C", "note": "(stereo not drawn)", "Potency": "inconclusive: 28.2 µM [inhibitor, partial curve] and inconclusive: 31.6 µM [inhibitor, partial curve]"}, {"smiles": "CCC(NC(=O)OC(C)(C)C)C(=O)Oc1cc(C)cc2oc(=O)c3c(c12)CCC3", "note": "(stereo not drawn)", "activity change, negative = inhibition": "inactive: -6.81%"}, {"smiles": "CC(C)OCCCNC(=O)c1c(N)n(Cc2cccs2)c2nc3ccccc3nc12", "Potency": "inconclusive: 31.6 µM [inhibitor, partial curve]"}, {"smiles": "CCCCN1C(=O)NC(=O)/C(=C/c2cnc(SC)nc2)C1=O", "Potency": "active: 20 µM"}, {"smiles": "COc1ccc(NC(=O)N2CCC3(CC2)CCN(C(=O)Oc2ccccc2)CC3)cc1", "activity change, negative = inhibition": "inactive: -13.1%"}, {"smiles": "C=CCNC(=O)c1c(N)n(CCN2CCOCC2)c2nc3ccccc3nc12", "Potency": "inconclusive: 22.4 µM [inhibitor, partial curve]"}, {"smiles": "Cc1ccc(N2C(=O)NC(=O)/C(=C/c3cnc(-c4ccccc4)nc3)C2=O)cc1C", "Potency": "active: 20 µM"}, {"smiles": "CC(=O)c1ccc2c(c1)C1C(Cl)C(Sc3ccccc3[N+](=O)[O-])CC1C(c1ccccc1[N+](=O)[O-])N2", "note": "(stereo not drawn)", "Potency": "inconclusive: 12.6 µM [inhibitor, partial curve]"}, {"smiles": "S=c1[nH]nc(-c2ccco2)n1Cc1ccccc1", "Potency": "inconclusive: 28.2 µM [inhibitor, partial curve]"}, {"smiles": "COc1ccc(CCn2c(O)c(/C=N/NC(=O)c3ccncc3)c(=O)[nH]c2=O)cc1OC", "Potency": "inconclusive: 25.1 µM [inhibitor, partial curve]"}, {"smiles": "CCN1C(=O)C(=Cc2ccc(C)s2)C(=O)N(CC)C1=S", "Potency": "active: 8.91 µM"}, {"smiles": "CN1CC(CNC(=O)OCc2ccccc2)CC2c3cccc4c3c(cn4C)CC21", "note": "(stereo not drawn)", "activity change, negative = inhibition": "inactive: -8.36%"}, {"smiles": "COCCOC(=O)c1c(N)n(Cc2ccco2)c2nc3ccccc3nc12", "Potency": "inconclusive: 22.4 µM [inhibitor, partial curve]"}, {"smiles": "O=C1NC(=O)N(c2cccc(Cl)c2)C(=O)/C1=C\\c1ccc(Sc2nc3ccccc3[nH]2)o1", "Potency": "active: 7.94 µM"}, {"smiles": "COc1cc2c(cc1O)C[C@H]1c3c(cc(O)c(OC)c3-2)CCN1C", "Potency": "inconclusive: 14.1 µM [inhibitor, partial curve]"}, {"smiles": "O=C(NC1(C(F)(F)F)Oc2ccccc2O1)N1CCC2(CC1)OCCO2", "Potency": "inconclusive: 39.8 µM [inhibitor, single point]"}]}]}
